This note sets out measurements from publication PMC6919601, “Identification of Plasmodium dipeptidyl aminopeptidase allosteric inhibitors by high throughput screening” (PLoS ONE, 2019).

Structures are written as SMILES. The whole screen tested about 110,000 compounds, of which about 230 (0.21%) showed an effect of 50% or more. Some of the results follow.
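Also: 30 min substrate incubation versus DMSO and 10 µM JCP410 controls.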

This test deals with DPAP1 (Plasmodium falciparum, UniProt Q8IIJ9). The experiment in a line: primary screen, percent inhibition; read by cleavage of a fluorogenic dipeptide substrate; higher = more effect of the substance. Details: species or system P. falciparum D10 trophozoite lysates; single well.
DPAP1, sequence (Q8IIJ9 whole entry, looked up): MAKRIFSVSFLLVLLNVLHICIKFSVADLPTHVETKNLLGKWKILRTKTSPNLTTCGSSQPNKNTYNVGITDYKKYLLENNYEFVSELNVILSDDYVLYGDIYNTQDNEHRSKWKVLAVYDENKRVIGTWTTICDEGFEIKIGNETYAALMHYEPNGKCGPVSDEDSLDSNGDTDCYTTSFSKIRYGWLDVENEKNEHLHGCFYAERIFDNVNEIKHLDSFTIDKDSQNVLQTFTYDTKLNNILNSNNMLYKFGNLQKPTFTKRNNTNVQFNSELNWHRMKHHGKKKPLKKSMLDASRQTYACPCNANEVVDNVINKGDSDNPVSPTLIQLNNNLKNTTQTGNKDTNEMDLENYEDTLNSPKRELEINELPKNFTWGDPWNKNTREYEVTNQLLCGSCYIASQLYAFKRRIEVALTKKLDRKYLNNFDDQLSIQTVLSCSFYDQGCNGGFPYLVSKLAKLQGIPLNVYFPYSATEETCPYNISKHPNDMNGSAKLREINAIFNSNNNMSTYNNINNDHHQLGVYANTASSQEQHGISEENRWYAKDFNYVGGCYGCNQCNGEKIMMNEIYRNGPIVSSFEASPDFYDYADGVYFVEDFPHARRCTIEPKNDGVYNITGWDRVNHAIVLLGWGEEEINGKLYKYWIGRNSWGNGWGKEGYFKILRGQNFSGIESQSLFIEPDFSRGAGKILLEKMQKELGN
On to `CSC1(c2ccc(C)cc2)CC(C)=C(C)CS1=O` (stereo not drawn), for which the “% Inhibition @ 10 uM” value is -0.988%.
As for `COCCCNC(=O)C1CCCN(c2nnc(C)c3c(C)n(-c4ccc(OC)cc4)nc23)C1` (stereo not drawn), the figure is 3.25%.
As for `COc1cc(OC)cc(C(=O)Nc2ccc(S(=O)(=O)Nc3nc(C)cc(C)n3)cc2)c1`, the figure is 10.4%; as for `C#CCOc1ccc(/C=C2\SC(=O)N(CC)C2=O)cc1OC`, -4.65%.
In the case of `CCn1cc(C(=O)Nc2ccc(C(=O)O)cc2)cn1`, the “% Inhibition @ 10 uM” value is -6.68%.
As for `COc1ccc([N+](=O)[O-])c2c(CCN3C(=O)c4ccccc4C3=O)c[nH]c12`, the “% Inhibition @ 10 uM” value is on record as -1.76%.
For the compound `COc1ccc(Nc2cc(C)nc(-c3ccccc3O)n2)cc1`, the “% Inhibition @ 10 uM” value was determined as 3.48%.
As for `COC(=O)C1=CN(C(C)C)C=C(C(=O)OC)C1c1ccc(C)s1`, the figure is 1.86%; as for `COc1ccc2c(c1)C(N1CCN(CCO)CC1)Cc1ccccc1S2` (stereo not drawn), 0.59%.
To `O=C(O)C1CCC(c2ccc(-c3ccccc3)cc2)CC1` (stereo not drawn) belongs 0.98%; to `CCCN(CCO)Cc1ccc([N+](=O)[O-])cc1`, 1.62%; to `COc1ccc(OC)c(NC(=O)CN(c2ccc(Cl)cc2)S(=O)(=O)c2ccccc2)c1`, -10.2%.
Consider `COc1cccc(C2C(C#N)=C(N)Oc3nc(O)nc(O)c32)c1` (stereo not drawn), for which the “% Inhibition @ 10 uM” value is 3.05%.
To `CC(C)(C)c1cc(O)c2oc(=O)c(-c3nc4cc(C(=O)O)ccc4[nH]3)cc2c1` belongs 4.93%.
As for `CC1(C)CC2=Nc3ccccc3N(C(=O)Cc3ccccc3)C(c3ccccc3Cl)C2=C(O)C1` (stereo not drawn), the figure is -1.66%.
To `Cc1ccc(C(=O)O)c2c1N[C@@H](c1ccccc1)[C@H]1CC=C[C@@H]21` belongs -5.82%; to `COc1ccc(-c2nn(C)c(=O)c3ccccc23)cc1CNS(C)(=O)=O`, -6.94%; to `Cc1nnc(SCCCn2c(N3CCCCC3)nc3c2c(=O)[nH]c(=O)n3C)s1`, -0.946%.
For `CCn1c2ccccc2c2cc(CN3CCN(c4ccccc4Cl)CC3)ccc21`, the “% Inhibition @ 10 uM” value is reported as 2.23%.
To `Cc1cc(S(=O)(=O)N2CCCC(C(=O)O)C2)ccc1Cl` (stereo not drawn) belongs 5.2%; to `CCOC(=O)N1CCC(NC(=O)c2ccc(CS(=O)(=O)c3ccc(OC)cc3)o2)CC1`, 0.458%; to `C[n+]1cc2ccccc2c2ccccc21`, 2.68%.
As for `N#CC1=C(N)OC2=C(C(=O)CC(c3ccccc3)C2)C1c1ccccc1Br` (stereo not drawn), the figure is -0.99%; as for `N#CCNC(=O)C(CCSc1ccncc1)NC(=O)c1ccccc1` (stereo not drawn), -3.49%.
As for `O=C(O)c1ccccc1C(=O)Nc1cccc2ccccc12`, the figure is -4.66%; as for `CCOC(=O)c1cnc2nncn2c1N`, 0.00706%.
Turning to `COc1cccc(NC(=O)CN(c2ccc(F)cc2)S(=O)(=O)c2ccc(C)cc2)c1`, the “% Inhibition @ 10 uM” value is -5.88%.
As to `Cc1ccc2nc(-c3ccccc3)c(CC(=O)O)c(C(=O)O)c2c1`, the “% Inhibition @ 10 uM” value was determined as 1.94%.
To `CCN(CC(O)CN)CC(O)COc1ccc(C(C)(C)C)cc1` (stereo not drawn) belongs -7.35%.
On to `CCc1c(-c2ccccc2)nc2ccccc2c1C(=O)N1CCCC1`, for which the “% Inhibition @ 10 uM” value was -0.733%.
Consider `COC(=O)c1c(NC(=O)COc2ccc(C(C)C)cc2)sc2c1CCC(C)C2` (stereo not drawn), for which the “% Inhibition @ 10 uM” value was 7.63%.
For the compound `Cn1c(=O)cc2c3c(c(Oc4ccccc4)ccc31)C(=O)c1ccccc1-2`, the “% Inhibition @ 10 uM” value was determined as 4.07%.
For `CCOC(=O)NC(c1c(N)n(C)c(=O)n(C)c1=O)(C(F)(F)F)C(F)(F)F`, the “% Inhibition @ 10 uM” value worked out at 1.72%.
As for `CCCO/C(O)=C1\C(C)=NC2=C(C(=O)CC(c3cccs3)C2)C1c1cccc(OC)c1OC` (stereo not drawn), the figure is 6.97%; as for `Cc1ccc(CNC(=O)C(=O)NCC(c2cccnc2)N2CCOCC2)cc1` (stereo not drawn), -3.51%.
With `CCOC(=O)C1=C(C)N=c2s/c(=C/C=C/c3ccccc3)c(=O)n2C1c1ccc(OC)cc1` (stereo not drawn), the “% Inhibition @ 10 uM” value came out at 8.01%.
As for `CSc1nc(SCc2ccccc2Cl)nc(N)c1C#N`, the figure is 9.94%.
Consider `O=C(NCCCc1ccccc1)C1CCC(CNS(=O)(=O)c2cccc3cccnc23)CC1` (stereo not drawn), for which the “% Inhibition @ 10 uM” value is recorded as -4.21%.
Consider `Cc1c(CNC(=O)c2nn3c(C(F)(F)F)cc(-c4ccccc4)nc3c2Cl)cnn1C`, for which the “% Inhibition @ 10 uM” value is on record as -3.9%.
As for `CCOC(=O)N1CCN(c2c(NCC3CCCO3)c(=O)c2=O)CC1` (stereo not drawn), the figure is -5.05%; as for `COc1cccc(C(=O)Nc2cccnc2)c1OC`, -5.41%; as for `Cc1nc2[nH]c(-c3ccccc3)nc2cc1Br`, 8.38%.
To `COCc1[nH]nc2c1C1(CCN(Cc3ccccc3)CC1)C(C#N)=C(N)O2` belongs -4.43%.
`CC(NC(=O)CCn1c(=O)c2cccn2c2cccnc21)c1ccccc1` (stereo not drawn): the “% Inhibition @ 10 uM” value is -1.28%.
As for `O=C(c1ccncc1)N(c1ccc2oc3c(c2c1)CCCC3)S(=O)(=O)c1cccs1`, the figure is 3.26%.
As for `CCC1CCCCN1CCCNC(=O)c1cc2c(O)nc3ccccc3c2s1` (stereo not drawn), the figure is 2.9%.
Regarding `COc1ccc(OCCCCc2c(C)n[nH]c2C)cc1`, the “% Inhibition @ 10 uM” value is on record as -1.41%.
With `CC1CN(C(C)(C)C)CC(O)(c2ccccc2)C1` (stereo not drawn), the “% Inhibition @ 10 uM” value is on record as -3.26%.
As for `O=C(NC1CC1)c1ccc(Cn2cnnn2)cc1`, the figure is -0.703%.
As for `COCCCNC(=O)CN1CCN(Cc2ccccc2Cl)C1=O`, the “% Inhibition @ 10 uM” value is given as -2.99%.
Regarding `Cc1ccc(C(=O)Nc2ccc3c(c2)oc2ccccc23)cc1`, the “% Inhibition @ 10 uM” value is listed as -4.26%.
For the compound `CC(C)(C)NS(=O)(=O)c1ccc(OCC(=O)NCC2CCCO2)cc1` (stereo not drawn), the “% Inhibition @ 10 uM” value is -4.15%.
To `CCN(CC)CC(O)COc1ccc(OCC(O)CN(CC)CC)cc1` (stereo not drawn) belongs 23.6%; to `CCCC(=O)NCn1nnc(-c2ccc(Cl)cc2)n1`, 0.686%; to `COC(=O)C1=C(C)NC(=O)/C1=C\c1cc(C)n(-c2cc(Cl)cc(Cl)c2)c1C`, 1.84%.
To `O=S(=O)(c1ccc(-n2cnnn2)cc1)N1CCC(N2CCCCC2)CC1` belongs -2.4%; to `O=C(Nc1cc(Cl)ccc1Cl)c1ccc(N2C(=O)C3C4C=CC(C4)C3C2=O)cc1` (stereo not drawn), -0.0619%; to `CCOc1ccccc1CNCc1cccs1`, 1.84%.
To `Oc1ccc(-c2ccco2)nn1` belongs 0.635%; to `Cc1cccc(NC(=O)c2ccccc2[N+](=O)[O-])c1C`, 0.247%; to `O=C(c1ccc(-c2ccccc2)cc1)N1CCN(c2ccccc2)CC1`, 6.65%.
As to `c1ccc(Cn2c3ccccc3c3nc4ccccc4nc32)cc1`, the “% Inhibition @ 10 uM” value is on record as -2%.
With `Cc1cc(C)c2nc(-c3ccc(C)o3)cc(C(=O)O)c2c1`, the “% Inhibition @ 10 uM” value is 0.431%.
`COc1cc(-c2nc(O)c3c(n2)Oc2c(cc(Br)cc2OC)C3)ccc1O`: the “% Inhibition @ 10 uM” value was 0.351%.
Turning to `CC(C)c1ccc(-n2nnc(-c3nc(-c4cccs4)no3)c2N)cc1`, the “% Inhibition @ 10 uM” value came out at 4.23%.
As to `Cc1nc2cc(S(=O)(=O)N3CCC(C(=O)NCc4ccoc4)CC3)ccc2n1C1CCCC1`, the “% Inhibition @ 10 uM” value is on record as -3.53%.
As for `CC1CCCCN1CCNC(=O)Cn1nc(-c2ccc(Cl)cc2)ccc1=O` (stereo not drawn), the figure is -1.79%; as for `CCOCCCNC(=O)C(NC(=O)Cc1c[nH]c2ccccc12)c1ccccc1` (stereo not drawn), 3.51%; as for `COc1ccc(OC)c(Nc2nc(-c3ccc(OC)c(OC)c3)cs2)c1`, -1.26%.
Turning to `C=CCOC(=O)NC1CCS(=O)(=O)C1` (stereo not drawn), the “% Inhibition @ 10 uM” value was 0.0539%.
For `N#Cc1ccc(Br)cc1/C=C/C(=O)O`, the “% Inhibition @ 10 uM” value came to 5.98%.
For `Fc1ccc(-n2c(S)nnc2C23CC4CC(CC(C4)C2)C3)cc1`, the “% Inhibition @ 10 uM” value was 3.27%.
To `CCOC(=O)c1c(C)n(-c2ccc(OC)cc2)c2c1cc(O)c1ccccc12` belongs -2.26%; to `CCc1ccccc1N(CC(=O)NC1CC2CCC1C2)S(=O)(=O)c1ccccc1` (stereo not drawn), 0.0504%.
Take `Cc1cccc(CN2C(=O)N/C(=C/c3cc(C)n(-c4ccccn4)c3C)C2=O)c1`: the “% Inhibition @ 10 uM” value is listed as -12.5%.
To `COc1ccc(C2=NN3C(C2)c2cc(OC)ccc2OC3(C)C)cc1` (stereo not drawn) belongs 43.8%.
As for `COC(=O)c1ccccc1NC(=O)C(C)Oc1ccc(F)cc1` (stereo not drawn), the figure is 5.79%.
As for `COc1ccc(OC)c(/C=C(/C#N)c2nc(-c3cc4ccccc4oc3=O)cs2)c1`, the figure is 2.7%; as for `CC(=O)N1c2ccccc2N(CC(=O)c2ccccc2)C(=O)CC1C` (stereo not drawn), 2.27%; as for `COc1ccc(-c2cc3ccccn3c2C)cc1OC`, 1.72%.
For `COC(=O)c1ccc2c(c1)C(=O)/C(=C/c1cccs1)O2`, the “% Inhibition @ 10 uM” value was -1.37%.
To `COc1ccc(CCNC(=O)c2cc(S(=O)(=O)N3CCCCC3)c[nH]2)cc1OC` belongs -5.3%; to `COc1ccc(N(Cc2ccc(F)cc2)C(=O)c2ccco2)cc1`, 0.162%; to `Cc1ccccc1Cn1c(CCCNC(=O)c2ccco2)nc2ccccc21`, 3.74%.
In the case of `CC(C)(O)C#Cc1ccc(C(=O)N2CCN(C/C=C/c3ccccc3)CC2)cc1`, the “% Inhibition @ 10 uM” value worked out at 1.37%.
Regarding `O=C(CN1Cc2ccccc2C1=O)NCCc1ccccc1`, the “% Inhibition @ 10 uM” value is recorded as -2.96%.
With `COCCNC(=O)c1ccc(CNS(=O)(=O)c2cccc(C(F)(F)F)c2)cc1`, the “% Inhibition @ 10 uM” value is recorded as 3.56%.
As for `Cc1ccc(C(=O)N/C(=C\c2cccnc2)C(=O)NCCc2c[nH]c3ccccc23)cc1`, the figure is 8.37%.
To `COC(=O)c1c[nH]n2c(NC3CCC(C)CC3)c(-c3ccc(OC)c(OC)c3)nc12` (stereo not drawn) belongs -3.94%.
Take `CCOc1cccc(-c2nnc(N)s2)c1`: the “% Inhibition @ 10 uM” value is -5.7%.
To `Cc1ccccc1OCC(=O)N1CCC(C)CC1` belongs -9.82%.
On to `CC(C)C[C@H](NC(=O)c1ccc(Cl)c(Cl)c1)C(=O)NCC#N`, for which the “% Inhibition @ 10 uM” value amounted to 4.45%.
As to `O=C1/C(=C\c2ccc(F)cc2)N2CCC1CC2`, the “% Inhibition @ 10 uM” value is given as -10.8%.
As for `CC1=C(C(=O)Nc2ccccc2)C(c2ccccc2)n2c(s/c(=C/c3ccoc3)c2=O)=N1` (stereo not drawn), the figure is -6.27%; as for `Cc1cc(C)c2c3c(sc2n1)C(c1ccncc1)C(C#N)=C(N)O3` (stereo not drawn), 3.99%.
As for `O=C(Cn1nnc2sc3c(c2c1=O)CCCC3)NCCc1ccccc1`, the figure is 0.561%; as for `Cc1ccc(CS(=O)Cc2ccc(C(=O)N3CCN(Cc4ccccc4)CC3)o2)cc1` (stereo not drawn), -1.28%; as for `Cc1cc2nc(O)c(O)nc2cc1S(=O)(=O)NCCc1ccccc1`, 4.17%.
For `COc1ccc2[nH]c(C)c(CCNC(=O)c3ccc(C)cc3)c2c1`, the “% Inhibition @ 10 uM” value was -3.65%.
